The values below come from publication PMC3142171.

The chains behind the UniProt entries cited, without tags or fusion partners. Where a name states a change or a piece, a line headed by the entry shows the natural chain unless it says otherwise. Residues count along the entry.
UniProt P16749: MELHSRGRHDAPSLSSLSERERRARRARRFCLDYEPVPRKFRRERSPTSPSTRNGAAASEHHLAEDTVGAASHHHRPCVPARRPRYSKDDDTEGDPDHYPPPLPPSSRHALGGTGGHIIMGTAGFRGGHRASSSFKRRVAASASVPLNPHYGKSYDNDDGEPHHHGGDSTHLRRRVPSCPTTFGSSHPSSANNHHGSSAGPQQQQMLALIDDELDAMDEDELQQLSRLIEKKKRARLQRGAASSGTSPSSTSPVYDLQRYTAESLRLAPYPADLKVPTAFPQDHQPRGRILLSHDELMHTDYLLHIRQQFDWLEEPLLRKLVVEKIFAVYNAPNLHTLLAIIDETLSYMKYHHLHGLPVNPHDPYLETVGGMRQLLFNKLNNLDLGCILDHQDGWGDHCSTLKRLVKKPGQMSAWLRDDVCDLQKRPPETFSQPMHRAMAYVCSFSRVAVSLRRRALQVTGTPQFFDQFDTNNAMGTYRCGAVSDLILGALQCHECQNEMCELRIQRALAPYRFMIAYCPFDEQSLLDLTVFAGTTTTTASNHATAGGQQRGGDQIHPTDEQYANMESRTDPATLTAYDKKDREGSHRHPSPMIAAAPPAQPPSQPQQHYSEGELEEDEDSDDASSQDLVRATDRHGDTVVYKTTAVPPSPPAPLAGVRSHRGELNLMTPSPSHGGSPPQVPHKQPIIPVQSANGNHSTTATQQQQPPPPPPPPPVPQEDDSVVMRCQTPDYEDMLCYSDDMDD
UniProt Q13838: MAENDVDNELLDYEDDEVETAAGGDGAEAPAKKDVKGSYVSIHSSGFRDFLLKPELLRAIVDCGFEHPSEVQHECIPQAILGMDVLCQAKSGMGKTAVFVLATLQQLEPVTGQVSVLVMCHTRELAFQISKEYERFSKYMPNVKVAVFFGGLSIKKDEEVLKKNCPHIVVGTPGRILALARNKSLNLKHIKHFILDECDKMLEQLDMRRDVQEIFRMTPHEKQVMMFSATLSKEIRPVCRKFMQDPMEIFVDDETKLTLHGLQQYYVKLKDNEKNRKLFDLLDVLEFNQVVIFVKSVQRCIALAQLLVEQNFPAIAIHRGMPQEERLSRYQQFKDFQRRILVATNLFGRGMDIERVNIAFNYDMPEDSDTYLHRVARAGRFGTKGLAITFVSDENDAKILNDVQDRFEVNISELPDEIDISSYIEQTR
FLAG-UAP56aa1-194: residues 1-194 of Q13838
FLAG-UAP56aa195-428: residues 195-428 of Q13838
βGAL-NLS-UAP56aa227-428: residues 227-428 of Q13838
βGAL-NLS-UAP56aa298-428: residues 298-428 of Q13838
UniProt O00148: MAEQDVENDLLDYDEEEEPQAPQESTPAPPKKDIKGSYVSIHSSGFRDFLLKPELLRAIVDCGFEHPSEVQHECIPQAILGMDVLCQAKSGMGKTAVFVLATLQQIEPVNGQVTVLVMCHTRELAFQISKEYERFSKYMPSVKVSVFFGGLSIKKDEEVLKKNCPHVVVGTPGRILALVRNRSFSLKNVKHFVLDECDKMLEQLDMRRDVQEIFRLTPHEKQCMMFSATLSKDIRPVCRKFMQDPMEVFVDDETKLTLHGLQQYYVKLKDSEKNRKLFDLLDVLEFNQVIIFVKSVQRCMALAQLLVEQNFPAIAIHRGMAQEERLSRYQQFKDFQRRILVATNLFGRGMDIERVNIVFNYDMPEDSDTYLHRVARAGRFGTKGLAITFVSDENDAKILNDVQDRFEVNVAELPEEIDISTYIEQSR

Results are given in words; binding and its absence hold for the method and conditions named. For some assays here: In cells and extracts the contact can be indirect. Some results given as binding are weak or reduced against the parent protein; the word gives no strength. For some assays here: Sequences can lack the tags named with a protein.

The target in experiment [1] is pUL69 fused to the GAL4 DNA-binding domain (human cytomegalovirus) (UniProt P16749). The experiment is described as follows: two-hybrid; S. cerevisiae Y153; UAP56 or URH49 variants fused to the GAL4 activation domain, REF or pUL69 fused to the GAL4 DNA-binding domain; filter-lift assay for β-galactosidase.
Experiment [2] concerns the target βGAL-NLS-UAP56aa195-428 (human) (UniProt Q13838). The experiment is described as follows: co-IP; HEK293T cells cotransfected with pUL69 and NLS-βGal or βGal-NLS-UAP56 truncations; immunoprecipitation with anti-β-galactosidase, detection with α-pUL69; CoIP buffer 50 mM Tris-HCl pH 8.0, 150 mM NaCl, 5 mM EDTA, 0.5% NP-40.
Experiment [3] deals with βGAL-NLS-UAP56aa227-428 (human) (UniProt Q13838). The description is as above.
The target of experiment [4] is βGAL-NLS-UAP56aa298-428 (human) (UniProt Q13838). The description is as above.
For experiment [5], the target named is FLAG-UAP56aa195-428 (human) (UniProt Q13838). Description: co-IP; HEK293T cells cotransfected with HA-Rae1 and FLAG-tagged UL69, UAP56 or URH49 variants; immunoprecipitation with anti-FLAG, detection with polyclonal HA-antibody; CoIP buffer 50 mM Tris-HCl pH 8.0, 150 mM NaCl, 5 mM EDTA, 0.5% NP-40.
Experiment [6] addresses FLAG-URH49 full-length (human) (UniProt O00148). The description is as above.
Experiment [7] has as its target FLAG-UL69 (human cytomegalovirus) (UniProt P16749). The experiment is described as above.
The target in experiment [8] is FLAG-UAP56aa1-194 (human) (UniProt Q13838). The experiment is described as above.
Experiment [9] deals with FLAG-UAP56 full-length (human) (UniProt Q13838). Described as above.
Experiment [10] deals with FLAG-UAP56-Q289R+F312A (human) (UniProt Q13838). The description is as above.

With “UAP56 aa195-428 fused to the GAL4 activation domain (from UniProt Q13838 195-428) (domain or fragment)”, in experiment [1], the binding result is recorded as “binds”.

For pUL69 (from UniProt P16749 1-744), the binding entry in experiment [2] was “binds”; in experiment [3], “binds”; in [4], “no binding”.

For the molecule “URH49 aa194-427 fused to the GAL4 activation domain (from UniProt O00148 194-427) (domain or fragment)”, the binding result in [1] is reported as “binds”.

B1: HA-Rae1 (protein, UniProt P78406 1-368)
chain: MSLFGTTSGFGTSGTSMFGSATTDNHNPMKDIEVTSSPDDSIGCLSFSPPTLPGNFLIAGSWANDVRCWEVQDSGQTIPKAQQMHTGPVLDVCWSDDGSKVFTASCDKTAKMWDLSSNQAIQIAQHDAPVKTIHWIKAPNYSCVMTGSWDKTLKFWDTRSSNPMMVLQLPERCYCADVIYPMAVVATAERGLIVYQLENQPSEFRRIESPLKHQHRCVAIFKDKQNKPTGFALGSIEGRVAIHYINPPNPAKDNFTFKCHRSNGTNTSAPQDIYAVNGIAFHPVHGTLATVGSDGRFSFWDKDARTKLKTSEQLDQPISACCFNHNGNIFAYASSYDWSKGHEFYNPQKKNYIFLRNAAEELKPRNKK
As for B1, the binding result is recorded as “no binding” in experiment [5]; “no binding” in experiment [6]; “binds weakly” in [7]; “binds” in experiment [8]; “no binding” in experiment [9]; “no binding” in [10].
